# Like-named read-outs stand apart in the source and are kept apart here. At least one structure is not confirmed: it was looked up by name or label, or the drawing left a doubt. Where a SMILES comes first, the peptide text is derived from it. [ ]: non-standard residue; d: D form. The star is where a group is joined. 5TAMRA = CN(C)c1ccc2c(c1)Oc1cc(N(C)C)ccc1C21OC(=O)c2cc(C(=O)*)ccc21; Nle = CCCC[C@H](N)C(=O)O
# Columns and labels:
# endogenous hPTHR1 = target: T1, endogenous hPTHR1 (Homo sapiens, UniProt Q03431); test: Antagonism of PTH(1-34)- and PTHrP(1-36)-induced cAMP response (GloSensor) in SGS-72 cells; assay type: cell-based
# T1 construct: Saos-2, in which is endogenously expressed the hPTHR1; endogenous in cells
# T1 sequence (Q03431 27-593): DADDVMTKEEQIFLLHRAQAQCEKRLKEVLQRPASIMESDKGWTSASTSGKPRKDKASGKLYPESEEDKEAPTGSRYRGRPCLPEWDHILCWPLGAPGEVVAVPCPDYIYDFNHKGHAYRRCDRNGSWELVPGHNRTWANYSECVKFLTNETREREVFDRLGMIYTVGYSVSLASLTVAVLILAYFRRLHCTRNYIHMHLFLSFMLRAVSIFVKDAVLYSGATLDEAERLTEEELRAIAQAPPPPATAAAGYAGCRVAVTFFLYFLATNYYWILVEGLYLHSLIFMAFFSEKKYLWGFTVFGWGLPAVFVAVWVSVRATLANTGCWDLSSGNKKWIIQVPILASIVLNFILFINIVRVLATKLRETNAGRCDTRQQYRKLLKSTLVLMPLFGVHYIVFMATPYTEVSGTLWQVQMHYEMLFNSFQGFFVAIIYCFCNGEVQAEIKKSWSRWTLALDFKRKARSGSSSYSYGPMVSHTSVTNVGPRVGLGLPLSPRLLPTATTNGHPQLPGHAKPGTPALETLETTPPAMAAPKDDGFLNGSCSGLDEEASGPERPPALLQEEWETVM
# Protocol: cAMP signaling was assessed in the HEK293-derived or SaOS2-derived cell lines stably expressing the luciferase-based GloSensorTM cAMP reporter ([…] al., Paper presented at: Novel Signaling Mechanisms and Bone Cell Biology 2014; Binkowski et al., Methods in molecular biology. 756:263-271). HEK-293 cells were further transfected to stably express the hPTHR1, hPTHR1-H223R, or hPTHR1-T410P. The cells were seeded into 96-well white plates and were assayed 24 to 48 hours post-confluency. Assays were performed at room temperature in CO2-independent culture media (Life Technologies, Corp., Carlsbad, Calif.) containing 0.1% BSA (CIDB). The cells were pre-loaded with luciferin (0.5 mM in CIDB) for 15 minutes, then PTH peptides were added at varying concentrations. cAMP-dependent luminescence was measured at two-minute intervals using a PerkinElmer Envision plate reader. The time at which maximum luminescence (cps) observed with agonist alone, typically at 10-20 minutes after agonist addition, was used to obtain data from wells containing antagonist with or without agonist, to thus generate antagonist ligand dose-response curves. The resulting cps values were then plotted against ligand concentration using GraphPad Prism 7.0 software and a four-parameter logistics curve fitting equation, which yielded parameters of inhibitory potency (pIC50). Pharmacological properties of the ligands were assessed in cells expressing the PTHR1 and the GloSensorTM cAMP reporter. The assays used GP-2.3 cells, derived from HEK293 cells by stable transfection with the hPTHR1 and GloSensorTM, as well as SGS-72 cells, which are derived from the human osteosarcoma cell line, Saos-2, in which is endogenously expressed the hPTHR1, by stable transfection with GloSensorTM. Binding of representative polypeptides to the PTHR1 was assessed in GP-2.3 cells by radioligand competition methods (FIGS. 1A and 1B, Table 3). […] In Table 5, antagonist assays were performed in SGS-72 cells (SaOS2 cells with stable GloSensorTM cAMP reporter) at room temperature. […] The mean (±sem) concentration of antagonist that inhibited the maximum agonist-induced response observed in the absence of antagonist (at 40 minutes) is reported in units of -log M (pIC50), and the corresponding nanomolar value is shown below each pIC50 value. Data are means of the number of seven experiments. The PTH(1-34)-induced maximum luminescence was 500,000 cps and the basal was 5,000 cps. TMR indicates Lys13 modified at epsilon amino function with TMR. The data are illustrated in FIG. 7A. […] Date are means (±SEM) of the number of separate experiments indicated by n.
# PTHR1 = target: T2, PTHR1 (Homo sapiens, UniProt Q03431); test: Antagonism of PTH(1-34)-induced cAMP response (GloSensor) in GP-2.3 cells; assay type: cell-based; conditions: inhibition of PTH(1-34)-induced maximum response; for IC50: read-out: corresponding nanomolar value of pIC50 (Table 4) (converted)
# T2 construct: expressed in transfected cells; host or cells: GP-2.3 (HEK-293 stably transfected with hPTHR1 and GloSensor)
# T2 sequence (Q03431 27-593): T1 sequence (Q03431 27-593)
# Protocol: cAMP signaling was assessed in the HEK293-derived or SaOS2-derived cell lines stably expressing the luciferase-based GloSensor™ cAMP reporter (Hattersley et al., Paper presented at: Novel Signaling Mechanisms and Bone Cell Biology 2014; Binkowski et al., Methods in molecular biology. 756:263-271). HEK-293 cells were further transfected to stably express the hPTHR1, hPTHR1-H223R, or hPTHR1-T410P. The cells were seeded into 96-well white plates and were assayed 24 to 48 hours post-confluency. Assays were performed at room temperature in CO2-independent culture media (Life Technologies, Corp., Carlsbad, Calif.) containing 0.1% BSA (CIDB). The cells were pre-loaded with luciferin (0.5 mM in CIDB) for 15 minutes, then PTH peptides were added at varying concentrations. cAMP-dependent luminescence was measured at two-minute intervals using a PerkinElmer Envision plate reader. The time at which maximum luminescence (cps) observed with agonist alone, typically at 10-20 minutes after agonist addition, was used to obtain data from wells containing antagonist with or without agonist, to thus generate antagonist ligand dose-response curves. The resulting cps values were then plotted against ligand concentration using GraphPad Prism 7.0 software and a four-parameter logistics curve fitting equation, which yielded parameters of inhibitory potency (pIC50).
# Pharmacological properties of the ligands were assessed in cells expressing the PTHR1 and the GloSensor™ cAMP reporter. The assays used GP-2.3 cells, derived from HEK293 cells by stable transfection with the hPTHR1 and GloSensor™, as well as SGS-72 cells, which are derived from the human osteosarcoma cell line, Saos-2, in which is endogenously expressed the hPTHR1, by stable transfection with GloSensor™. Binding of representative polypeptides to the PTHR1 was assessed in GP-2.3 cells by radioligand competition methods (FIGS. 1A and 1B, Table 3).
# […] concentration of antagonist that inhibited the maximum response to PTH(1-34)-induced in the absence of antagonist (at ˜40 minutes) is reported in units of -log M (pIC50), and the corresponding nanomolar value is shown below each pIC50 value. Data are means of the number of experiments indicated (n). The PTH(1-34)-induced maximum luminescence was ˜80,000 cps and the basal was ˜1,000 cps. TMR indicates Lys13 modified at epsilon amino function with TMR, P vs. inhibition by dW12,Y34-bPTH(7-34).
# [1] = antagonist pre-treatment 15 minutes, PTH(1-34) 0.3 nM
# [2] = read-out: IC50 PTH(1-34) (Table 6, nanomolar value), antagonist pre-treatment 15 minutes, PTH(1-34) 0.3 nM
SMILES,"pIC50 vs. PTH(1-34) (Table 5) (endogenous hPTHR1; antagonist pre-treatment 10 minutes, PTH(1-34) 0.3 nM, seven experiments)","pIC50 vs. PTHrP(1-36) (Table 5) (endogenous hPTHR1; antagonist pre-treatment 10 minutes, PTHrP(1-36) 0.3 nM, seven experiments)",pIC50 PTH(1-34) (Table 6) (endogenous hPTHR1; [1]),"pIC50 PTHrP(1-36) (Table 6) (endogenous hPTHR1; antagonist pre-treatment 15 minutes, PTHrP(1-36) 0.3 nM)","IC50 (endogenous hPTHR1; antagonist pre-treatment 15 minutes, PTHrP(1-36) 0.3 nM, read-out: IC50 PTHrP(1-36) (Table 6, nanomolar value)) [nM]",IC50 (endogenous hPTHR1; [2]) [nM],pIC50 (Table 4) (PTHR1),IC50 (PTHR1) [nM]
"CCCC[C@H](NC(=O)[C@H](CC(C)C)NC(=O)[C@H](CCC(N)=O)NC(=O)[C@@H](N)[C@@H](C)CC)C(=O)N[C@@H](Cc1c[nH]cn1)C(=O)N[C@@H](CCC(N)=O)C(=O)N[C@@H](CCCNC(=N)N)C(=O)N[C@H](Cc1c[nH]c2ccccc12)C(=O)N[C@@H](CCCCNC(=O)c1ccc2c(c1)C(=O)OC21c2ccc(N(C)C)cc2Oc2cc(N(C)C)ccc21)C(=O)N[C@@H](Cc1c[nH]c2ccccc12)C(=O)N[C@H](C(=O)N[C@@H](CCC(N)=O)C(=O)N[C@@H](CC(=O)O)C(=O)N[C@@H](C)C(=O)N[C@@H](CCCNC(=N)N)C(=O)N[C@@H](CCCNC(=N)N)C(=O)N[C@@H](CCCNC(=N)N)C(=O)N[C@@H](C)C(=O)N[C@@H](Cc1c[nH]c2ccccc12)C(=O)N[C@@H](CC(C)C)C(=O)N[C@@H](Cc1c[nH]cn1)C(=O)N[C@@H](CCCCN)C(=O)N[C@@H](CC(C)C)C(=O)N[C@H](C(=O)N[C@@H](C)C(=O)N[C@@H](CCC(=O)O)C(=O)N[C@H](C(=O)N[C@@H](Cc1c[nH]cn1)C(=O)N[C@H](C(=O)N[C@@H](C)C(=O)N[C@@H](CCC(=O)O)C(=O)N[C@H](C(=O)N[C@@H](CS)C(N)=O)[C@@H](C)CC)[C@@H](C)O)[C@@H](C)CC)[C@@H](C)CC)[C@@H](C)CC [compound 1975, Nle8, TMR, dW12, W23, C37-LA-PTH(5-37)] (H-IQL[Nle]HQR[dW]K(5TAMRA)WIQDARRRAWLHKLIAEIHTAEIC-NH2; N-terminus assumed)",7.91 ± 0.16 -log M,8.01 ± 0.10 -log M,7.69 ± 0.13,8.01 ± 0.10,9.71,20.3,5.44 ± 0.06 -log M,3610
"CCCC[C@H](NC(=O)[C@H](CO)NC(=O)[C@H](CO)NC(=O)[C@H](CC(C)C)NC(=O)[C@H](Cc1c[nH]cn1)NC(=O)[C@H](CCCCNC(=O)c1ccc2c(c1)C(=O)OC21c2ccc(N(C)C)cc2Oc2cc(N(C)C)ccc21)NC(=O)[C@@H](Cc1c[nH]c2ccccc12)NC(=O)[C@H](CC(C)C)NC(=O)[C@H](CC(N)=O)NC(=O)[C@H](Cc1c[nH]cn1)NC(=O)[C@H](CCCC)NC(=O)[C@@H](N)Cc1ccccc1)C(=O)N[C@@H](CCC(=O)O)C(=O)N[C@@H](CCCNC(=N)N)C(=O)N[C@H](C(=O)N[C@@H](CCC(=O)O)C(=O)N[C@@H](Cc1c[nH]c2ccccc12)C(=O)N[C@@H](CC(C)C)C(=O)N[C@@H](CCCNC(=N)N)C(=O)N[C@@H](CCCCN)C(=O)N[C@@H](CCCCN)C(=O)N[C@@H](CC(C)C)C(=O)N[C@@H](CCC(N)=O)C(=O)N[C@@H](CC(=O)O)C(=O)N[C@H](C(=O)N[C@@H](Cc1c[nH]cn1)C(=O)N[C@@H](CC(N)=O)C(=O)N[C@@H](Cc1ccccc1)C(=O)N[C@@H](CS)C(N)=O)C(C)C)C(C)C [compound 1977, Nle8, TMR, dW12, C35-bPTH(7-35), reference compound] (H-F[Nle]HNL[dW]K(5TAMRA)HLSS[Nle]ERVEWLRKKLQDVHNFC-NH2; N-terminus assumed)",–,–,–,–,–,–,5.55 ± 0.03 -log M,2800
"CCCC[C@H](NC(=O)[C@@H](N)CC(C)C)C(=O)N[C@@H](Cc1c[nH]cn1)C(=O)N[C@@H](CCC(N)=O)C(=O)N[C@@H](CC(C)C)C(=O)N[C@H](Cc1c[nH]c2ccccc12)C(=O)N[C@@H](CCCCNC(=O)c1ccc2c(c1)C(=O)OC21c2ccc(N(C)C)cc2Oc2cc(N(C)C)ccc21)C(=O)N[C@@H](Cc1c[nH]c2ccccc12)C(=O)N[C@H](C(=O)N[C@@H](CCC(N)=O)C(=O)N[C@@H](CC(=O)O)C(=O)N[C@@H](C)C(=O)N[C@@H](CCCNC(=N)N)C(=O)N[C@@H](CCCNC(=N)N)C(=O)N[C@@H](CCCNC(=N)N)C(=O)N[C@@H](C)C(=O)N[C@@H](Cc1c[nH]c2ccccc12)C(=O)N[C@@H](CC(C)C)C(=O)N[C@@H](Cc1c[nH]cn1)C(=O)N[C@@H](CCCCN)C(=O)N[C@@H](CC(C)C)C(=O)N[C@H](C(=O)N[C@@H](C)C(=O)N[C@@H](CCC(=O)O)C(=O)N[C@H](C(=O)N[C@@H](Cc1c[nH]cn1)C(=O)N[C@H](C(=O)N[C@@H](C)C(=O)N[C@@H](CCC(=O)O)C(=O)N[C@H](C(N)=O)[C@@H](C)CC)[C@@H](C)O)[C@@H](C)CC)[C@@H](C)CC)[C@@H](C)CC [compound 1998, TMR-Nle8, L11, dW12, W23-LA-PTH(7-36)-1998] (H-L[Nle]HQL[dW]K(5TAMRA)WIQDARRRAWLHKLIAEIHTAEI-NH2; N-terminus assumed)",–,–,8.65 ± 0.07,–,–,2.21,–,–

# Reference: patent US20190119348A1, “PARATHYROID HORMONE RECEPTOR 1 ANTAGONIST AND INVERSE AGONIST POLYPEPTIDES AND METHODS OF THEIR USE” (The General Hospital Corporation, priority 2016, published 2019)
